What was measured:
uPA [1] = target: T1, uPA (Homo sapiens (Human), UniProt P00749); assay: BLI (Octet Red96E), WAb0014 on AHC sensor, hsuPAR captured, uPA as analyte (in the presence of WAb0014)
T1 construct: Serine protease, endogenous ligand of uPAR

uPA [2] = target: T1, uPA; assay: BLI (Octet Red96E), hsuPAR 3 µg/mL on streptavidin sensor, uPA as analyte

B1: human suPAR (hsuPAR) recombinant protein (receptor)
chain: not shown
notes: it is written here as the same molecule; also called recombinant hsuPAR
Kd (uPA [1]): 7.9 nM | Kd (uPA [2]): 15.1 nM
